Reference: the supplement of paper PMC12645437, “Orthogonal IMiD-Degron Pairs Induce Selective Protein Degradation in Cells” (ACS Chemical Biology, 2025)
The list shows a part of the results.

target: no compound (DMSO); assay: log2 fold change of degron read counts, EGFP-low vs EGFP+ sorted cells; higher = lower degron-EGFP level without compound (poor expression or instability); details: compound: DMSO control; 18 h
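Further: jurkat cells carrying a lentiviral library of mutant zinc finger degrons fused to EGFP plus mCherry, mCherry+ cells FACS sorted, degron abundance counted by next-generation sequencing.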

| Sequence | log2 fold change of degron read counts |
| --- | --- |
| FCCPICGRYFTQKGNLLRHIKL | 0.442 |
| FNCEICGHGFTQKGNLLRHIKL | -0.634 |
| FTCPICGAQFTQKGNLLRHIKL | -0.366 |
| FLCNQCGRKFTQKGNLLRHIKL | -0.503 |
| FICPICGRRFTQKGNLLRHIKL | -0.104 |
| FWCEICGHQFTQKGNLLRHIKL | -0.431 |
| FNCDQCGANFTQKGNLLRHIKL | -2.74 |
| FQCPICGASFTQKGNLLRHIKL | -0.299 |
| LVCPICGFPCTQKGNLLRHIKL | 1.8 |
| FFCEVCGAPFTQKGNLLRHIKL | -0.729 |
| FTCEICGAEFTQKGNLLRHIKL | -2.11 |
| FCCEICGRAFTQKGNLLRHIKL | -1.69 |
| LACPICGFGCTQKGNLLRHIKL | 0.859 |
| LCCNQCGFRCTQKGNLLRHIKL | 0.55 |
| FICDICGALFTQKGNLLRHIKL | -0.119 |
| LICEICGFDCTQKGNLLRHIKL | -0.474 |
| LNCEICGFPCTQKGNLLRHIKL | 0.133 |
| FLCPICGRFFTQKGNLLRHIKL | 1.07 |
| FDCEVCGAGFTQKGNLLRHIKL | -0.913 |
| LFCNQCGFNCTQKGNLLRHIKL | 0.647 |
| FYCDICGACFTQKGNLLRHIKL | -0.311 |
| FSCNQCGAQFTQKGNLLRHIKL | -0.699 |
| FRCDQCGATFTQKGNLLRHIKL | -1.26 |
| FSCDICGAMFTQKGNLLRHIKL | -0.0651 |
| FSCDQCGANFTQKGNLLRHIKL | -1.48 |

| Sequence | log2 fold change of degron read counts |
| --- | --- |
| FLCPICGADFTQKGNLLRHIKL | -0.0975 |
| FKCEICGRWFTQKGNLLRHIKL | -1.11 |
| FKCPQCGAFFTQKGNLLRHIKL | -0.579 |
| FWCPICGACFTQKGNLLRHIKL | 1.43 |
| FSCNICGAQFTQKGNLLRHIKL | -0.596 |
| FTCDICGASFTQKGNLLRHIKL | -1.38 |
| FICPICGRGFTQKGNLLRHIKL | -0.105 |
| FDCNQCGAMFTQKGNLLRHIKL | -0.463 |
| FLCPICGAAFTQKGNLLRHIKL | 0.0826 |
| FDCNVCGAMFTQKGNLLRHIKL | -0.562 |
| FLCEICGHEFTQKGNLLRHIKL | -3.75 |
| FSCPQCGARFTQKGNLLRHIKL | -0.551 |
| LNCNQCGFLCTQKGNLLRHIKL | 1.26 |
| FMCNVCGAFFTQKGNLLRHIKL | 0.156 |
| FICNQCGRAFTQKGNLLRHIKL | -0.792 |
| FKCEVCGATFTQKGNLLRHIKL | -1.45 |
| FSCNQCGAKFTQKGNLLRHIKL | -0.809 |
| FFCDQCGAGFTQKGNLLRHIKL | -1.08 |
| FRCSVCGHWFTQKGNLLRHIKL | 0.0806 |
| LHCNQCGFLCTQKGNLLRHIKL | 1.16 |
| FCCDICGAMFTQKGNLLRHIKL | -0.715 |
| FSCNQCGHWFTQKGNLLRHIKL | 1.34 |
| FQCNQCGAYFTQKGNLLRHIKL | -1.18 |
| FFCPVCGAMFTQKGNLLRHIKL | 0.692 |
| FVCDQCGASFTQKGNLLRHIKL | -2.82 |
